Results are given in words; binding and its absence hold for the method and conditions named. In cells and extracts the contact can be indirect. Some results given as binding are weak or reduced against the parent protein; the word gives no strength.
What was measured:
Test in all cases: co-IP
[1] = molecular target: SARS-CoV-2 ORF3a^Y160A (SARS-CoV-2) (UniProt P0DTC3)
[2] = molecular target: FLAG-tagged SARS-CoV-2 ORF3a RWQ/AAA (SARS-CoV-2) (UniProt P0DTC3)
[3] = molecular target: FLAG-tagged SARS-CoV-2 ORF3a Q70A (SARS-CoV-2) (UniProt P0DTC3)
[4] = molecular target: FLAG-tagged SARS-CoV-2 ORF3a R68A (SARS-CoV-2) (UniProt P0DTC3)
[5] = molecular target: SARS-CoV-2 ORF3a^Q116L (SARS-CoV-2) (UniProt P0DTC3)
[6] = molecular target: FLAG-tagged SARS-CoV-2 ORF3a W69A (SARS-CoV-2) (UniProt P0DTC3)

Measured: binding

B1: endogenous CLCC1 of 293FT cells (protein, UniProt Q96S66 19-551)
chain: HDDDWIDPTDMLNYDAASGTMRKSQAKYGISGEKDVSPDLSCADEISECYHKLDSLTYKIDECEKKKREDYESQSNPVFRRYLNKILIEAGKLGLPDENKGDMHYDAEIILKRETLLEIQKFLNGEDWKPGALDDALSDILINFKFHDFETWKWRFEDSFGVDPYNVLMVLLCLLCIVVLVATELWTYVRWYTQLRRVLIISFLFSLGWNWMYLYKLAFAQHQAEVAKMEPLNNVCAKKMDWTGSIWEWFRSSWTYKDDPCQKYYELLLVNPIWLVPPTKALAVTFTTFVTEPLKHIGKGTGEFIKALMKEIPALLHLPVLIIMALAILSFCYGAGKSVHVLRHIGGPESEPPQALRPRDRRRQEEIDYRPDGGAGDADFHYRGQMGPTEQGPYAKTYEGRREILRERDVDLRFQTGNKSPEVLRAFDVPDAEAREHPTVVPSHKSPVLDTKPKETGGILGEGTPKESSTESSQSAKPVSGQDTSGNTEGSPAAEKAQLKSEAAGSPDQGSTYSPARGVAGPRGQDPVSSPCG
binds: all assays above

— PMC13575168
